Assay results reported in the supplement of paper PMC9135407.
Several values for one entry are separate records, joined by “and”; a condition that tells them apart may be missing. Equal values may be shown once. Where a name gives a salt, the structure may show the parent alone. About 620 (11%) of roughly 5,800 compounds showed activity.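 How the source made its calls: active = score above a cut-off or among the top three wells of a plate; in these data no inactive exceeds 0.85.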 The list shows a part of the results, in another mix than the full data.

Tested on: primary human hepatic stellate cells (donor 1)
Experiment: scaled lipid accumulation score (0 = DMSO-like, 1 = nortriptyline-like); higher = stronger HSC inactivation (lipid re-accumulation), active = hit call of the paper
Conditions: 48 h
[1] = library stock concentration: 10 mM
[2] = library stock concentration: 3.33 mM
[3] = library stock concentration: 6.8 mM

CN(C)C(=O)C(CCN1CCC(O)(c2ccc(Cl)cc2)CC1)(c1ccccc1)c1ccccc1.Cl
scaled lipid accumulation score (library stock concentration: 9.7 mM): active: 1.02

CCCCC/C=C\C/C=C\C/C=C\C/C=C\CCCC(=O)N[C@@H](C)CO [S-1 Methanandamide]
scaled lipid accumulation score (library stock concentration: 1 mM): inactive: ≤ 0

O=C(O)Cc1cccnc1C(=O)O [Homoquinolinic acid]
scaled lipid accumulation score [1]: inactive: 0.004

CN[C@@H]1C[C@@H](c2ccc(Cl)c(Cl)c2)c2ccccc21 [Indatraline hydrochloride]
scaled lipid accumulation score [1]: inactive: 0.091 and inactive: 0.211

O=[N+]([O-])c1cc(O)c(O)c([N+](=O)[O-])c1
scaled lipid accumulation score [1]: inactive: ≤ 0

O=[N+]([O-])c1cc(O)c(O)c([N+](=O)[O-])c1 [3,5-Dinitrocatechol]
scaled lipid accumulation score [1]: inactive: ≤ -0.07

O=C1CN=C(c2ccccc2Cl)c2cc([N+](=O)[O-])ccc2N1 [Clonazepam]
scaled lipid accumulation score (library stock concentration: 6.3 mM): inactive: ≤ 0

NCCc1ccc(S(=O)(=O)F)cc1
scaled lipid accumulation score [2]: inactive: ≤ -0.001
scaled lipid accumulation score [1]: inactive: 0.025

NCCc1ccc(S(=O)(=O)F)cc1 [4-(2-Aminoethyl)benzenesulfonyl fluoride hydrochloride]
scaled lipid accumulation score [1]: inactive: 0.06

C[C@H]1O[C@H](O[C@H]2[C@H](O)[C@@H](O)[C@@H](O)[C@H](O)[C@@H]2O)[C@@H](N)C[C@@H]1NC(=N)C(=O)O [Kasugamycin hydrochloride]
scaled lipid accumulation score [1]: inactive: 0.133

C[C@H]1O[C@H](O[C@H]2[C@H](O)[C@@H](O)[C@@H](O)[C@H](O)[C@@H]2O)[C@@H](N)C[C@@H]1NC(=N)C(=O)O [Kasugamycin]
scaled lipid accumulation score (library stock concentration: 5.3 mM): inactive: ≤ -0.006

C[C@H](N)CN1CCc2ccc(Br)cc21 [VER-3323 hemifumarate salt]
scaled lipid accumulation score [1]: inactive: 0.817

Nc1nc(N)nc(NC2CC2)n1 [Cyromazine]
scaled lipid accumulation score [2]: inactive: ≤ 0
scaled lipid accumulation score [1]: inactive: 0.311

Nc1nc(N)nc(NC2CC2)n1
scaled lipid accumulation score [1]: inactive: ≤ 0

CN(C)CCN(C)CCc1ccc(Cl)c(Cl)c1 [BD 1047 dihydrobromide]
scaled lipid accumulation score [1]: inactive: 0.679

Cc1ccc(-c2nc3ccc(C)cn3c2CC(=O)N(C)C)cc1
scaled lipid accumulation score [1]: inactive: ≤ 0

Cc1ccc(-c2nc3ccc(C)cn3c2CC(=O)N(C)C)cc1 [Zolpidem]
scaled lipid accumulation score [1]: inactive: 0.079

N=C(N)NN
scaled lipid accumulation score [1]: inactive: ≤ 0

N=C(N)NN [Aminoguanidine hemisulfate]
scaled lipid accumulation score [1]: inactive: ≤ 0

N=C(N)NN [Aminoguanidine hydrochloride]
scaled lipid accumulation score [1]: inactive: 0.008 and inactive: ≤ 0

Clc1ccc(C2CC3CCC2N3)cn1 (configuration not stated)
scaled lipid accumulation score (library stock concentration: 24 mM): inactive: ≤ -0.012

C[C@H](N)[C@H](O)c1ccc(O)c(O)c1 [Levonordefrin]
scaled lipid accumulation score: inactive: ≤ 0
scaled lipid accumulation score [1]: inactive: 0.01
scaled lipid accumulation score (library stock concentration: 10.9 mM): inactive: ≤ -0.001

O=[N+]([O-])/C=C/c1ccc2c(c1)OCO2 [Syk Inhibitor III]
scaled lipid accumulation score [2]: inactive: 0.609

CC(C)N(CCC(C(N)=O)(c1ccccc1)c1ccccn1)C(C)C (configuration not stated) [Disopyramide]
scaled lipid accumulation score: inactive: ≤ 0
scaled lipid accumulation score [1]: inactive: ≤ -0.07

CC(C)N(CCC(C(N)=O)(c1ccccc1)c1ccccn1)C(C)C (configuration not stated) [Disopyramide phosphate]
scaled lipid accumulation score [1]: inactive: ≤ 0 and inactive: 0.296

CC[C@@]1(O)C[C@H](O[C@H]2C[C@H](N(C)C)[C@H](O)[C@H](C)O2)c2c(cc3c(c2O)C(=O)c2c(O)cccc2C3=O)[C@H]1C(=O)OC [Aklavine hydrochloride]
scaled lipid accumulation score [1]: inactive: 0.23

N[C@@H](Cc1ccc(N(CCCl)CCCl)cc1)C(=O)O [Melphalan]
scaled lipid accumulation score (library stock concentration: 6.6 mM): inactive: 0.027 and inactive: ≤ -0.001

CC(C)=CCOc1c2occc2cc2ccc(=O)oc12 [Imperatorin]
scaled lipid accumulation score [1]: inactive: ≤ -0.07 and inactive: 0.108

CCN1C[C@]2(C)CC[C@H](OC)[C@@]34C1[C@]1(OCO[C@@]15C[C@H](OC)[C@H]1C[C@]3(O)[C@@H]5[C@H]1OC)[C@@H](OC(C)=O)[C@H]24 [Deltaline]
scaled lipid accumulation score: inactive: ≤ 0

CC(Cc1ccc(OCC(=O)O)cc1)NCC(O)c1cccc(Cl)c1 (configuration not stated)
scaled lipid accumulation score [1]: inactive: 0.056

OC1CCCCC1N1CCC(c2ccccc2)CC1 (configuration not stated) [Vesamicol hydrochloride]
scaled lipid accumulation score [3]: inactive: ≤ 0
scaled lipid accumulation score [1]: inactive: ≤ -0.027

OC1CCCCC1N1CCC(c2ccccc2)CC1 (configuration not stated)
scaled lipid accumulation score [1]: inactive: ≤ 0

CCCCCCC[n+]1ccc(-c2cc[n+](CCCCCCC)cc2)cc1 [DHBP dibromide]
scaled lipid accumulation score [1]: inactive: ≤ 0

C=CCN1C[C@H](C)N([C@H](c2ccc(C(=O)N(CC)CC)cc2)c2cccc(OC)c2)C[C@H]1C
scaled lipid accumulation score [1]: inactive: 0.332 and inactive: 0.353

C=CCN1C[C@H](C)N([C@H](c2ccc(C(=O)N(CC)CC)cc2)c2cccc(O)c2)C[C@H]1C
scaled lipid accumulation score [1]: inactive: ≤ -0.006

CCCN1CCC[C@@H]2Cc3nc(N)ncc3C[C@H]21 [Quinelorane dihydrochloride]
scaled lipid accumulation score [1]: inactive: ≤ 0

CN(N=O)c1ccc(O)c(O)c1 [Me-3,4-dephostatin]
scaled lipid accumulation score [1]: inactive: ≤ -0.055

CC(N)Cc1c[nH]c2ccc(OCc3cccs3)cc12.Cl (configuration not stated) [BW 723C86 hydrochloride]
scaled lipid accumulation score [1]: active: 1.3

Cc1ccccc1-n1c(Cn2cnc3c(N)ncnc32)nc2cccc(C)c2c1=O
scaled lipid accumulation score (library stock concentration: 400 uM): inactive: ≤ -0.005
scaled lipid accumulation score (library stock concentration: 2 mM): inactive: ≤ -0.005
scaled lipid accumulation score [1]: inactive: 0.386

CNCC(O)c1ccc(O)cc1 (racemic) [(+,-)-Synephrine]
scaled lipid accumulation score: inactive: ≤ 0

Cn1cnc(CCN)c1 [1-Methylhistamine dihydrochloride]
scaled lipid accumulation score [1]: inactive: ≤ -0.055

Cn1cnc(CCN)c1 [N ?-Methylhistamine dihydrochloride]
scaled lipid accumulation score [1]: inactive: 0.004

C1CCc2nnnn2CC1 [Pentylenetetrazole]
scaled lipid accumulation score: inactive: 0.026
scaled lipid accumulation score [1]: inactive: 0.024 and inactive: ≤ 0

C=CCN=C=S
scaled lipid accumulation score [1]: inactive: ≤ 0

C=C1[C@@H]2CC[C@H]3[C@]4(C)C[C@H](O[C@@H]5O[C@H](CO)[C@@H](OS(=O)(=O)O)[C@H](OS(=O)(=O)O)[C@H]5OC(=O)CC(C)C)C[C@@H](C(=O)O)[C@H]4CC[C@]3(C2)[C@@H]1O [Atractyloside potassium salt]
scaled lipid accumulation score: inactive: ≤ 0

C=C[C@H]1CN2CC[C@H]1C[C@@H]2[C@@H](O)c1ccnc2ccccc12 [Cinchonine]
scaled lipid accumulation score: inactive: ≤ 0
scaled lipid accumulation score [3]: inactive: ≤ 0
scaled lipid accumulation score [1]: inactive: ≤ 0

CC(Cc1ccc(O)cc1)NCC(O)c1cc(O)cc(O)c1 (configuration not stated) [Fenoterol hydrobromide]
scaled lipid accumulation score: inactive: ≤ 0
scaled lipid accumulation score (library stock concentration: 5.2 mM): inactive: ≤ 0
scaled lipid accumulation score [1]: inactive: ≤ 0 and inactive: 0.294

C/C(=C\c1csc(C)n1)[C@@H]1C[C@@H]2O[C@]2(C)CCC[C@H](C)[C@H](O)[C@@H](C)C(=O)C(C)(C)[C@@H](O)CC(=O)O1 [Epothilone B (EPO906, Patupilone)]
scaled lipid accumulation score [2]: inactive: ≤ 0
scaled lipid accumulation score [1]: inactive: ≤ 0

C=CC[C@]1(O)CC[C@H]2[C@@H]3CCC4=CC(=O)CCC4=C3C=C[C@@]21C [Altrenogest]
scaled lipid accumulation score [2]: inactive: ≤ 0
scaled lipid accumulation score (library stock concentration: 6.4 mM): inactive: ≤ 0
scaled lipid accumulation score [1]: inactive: 0.15

CN1C(=O)[C@]23CC4=CC=C[C@H](O)[C@H]4N2C(=O)[C@@]1(CO)SS3 [Gliotoxin]
scaled lipid accumulation score (library stock concentration: 15.3 mM): inactive: 0.467

OC[C@@H]1CCCN2CCCC[C@H]12 [Lupinine]
scaled lipid accumulation score [1]: inactive: 0.006

COc1cc2c3cc1Oc1cc(ccc1O)C[C@@H]1c4c(cc(OC)c(O)c4Oc4cccc(c4)C[C@@H]3N(C)CC2)CC[N+]1(C)C [Tubocurarine chloride pentahydrate (+)]
scaled lipid accumulation score: inactive: 0.039

CNCCc1ccc(O)c(O)c1 [N-Methyldopamine hydrochloride]
scaled lipid accumulation score [1]: inactive: 0.327

Clc1cnc(Oc2ccc(Oc3ncc(Cl)cc3Cl)cc2)c(Cl)c1
scaled lipid accumulation score [1]: inactive: ≤ 0

O=C1C=CC(=O)c2c(O)cccc21 [Juglone]
scaled lipid accumulation score [1]: inactive: 0.428

COC[C@H]1OC(=O)c2coc3c2[C@@]1(C)C1=C(C3=O)[C@@H]2CCC(=O)[C@@]2(C)C[C@H]1OC(C)=O [Wortmannin]
scaled lipid accumulation score [2]: inactive: ≤ 0
scaled lipid accumulation score [1]: inactive: ≤ 0

C=C[C@H]1CN2CC[C@H]1C[C@H]2[C@H](O)c1ccnc2ccccc12 [Cinchonidine]
scaled lipid accumulation score [2]: inactive: ≤ 0
scaled lipid accumulation score [3]: inactive: ≤ 0
scaled lipid accumulation score [1]: inactive: ≤ 0

C=C[C@H]1CN2CC[C@H]1C[C@H]2[C@H](O)c1ccnc2ccccc12 [(-)-Cinchonidine]
scaled lipid accumulation score: inactive: ≤ 0

Cc1cccc(C(C)c2c[nH]cn2)c1C (configuration not stated) [Medetomidine HCl]
scaled lipid accumulation score [2]: inactive: ≤ 0
scaled lipid accumulation score [1]: inactive: 0.387

Cc1cccc(C(C)c2c[nH]cn2)c1C (configuration not stated) [Medetomidine hydrochloride]
scaled lipid accumulation score [1]: inactive: ≤ -0.001

CC1=NCCc2c1[nH]c1cc(O)ccc21 [Harmalol hydrochloride]
scaled lipid accumulation score [1]: inactive: ≤ 0

COc1ccc2c(c1)[C@]13CCCC[C@@H]1[C@H](C2)N(C)CC3 [Dextromethorphan hydrobromide monohydrate]
scaled lipid accumulation score: inactive: 0.376
scaled lipid accumulation score [1]: inactive: 0.707

COc1ccc2c(c1)[C@]13CCCC[C@@H]1[C@H](C2)N(C)CC3 [Dextromethorphan hydrobromide]
scaled lipid accumulation score (library stock concentration: 5.7 mM): inactive: 0.44
scaled lipid accumulation score [1]: inactive: 0.106

COc1ccc2c(c1)[C@]13CCCC[C@@H]1[C@H](C2)N(C)CC3 [d-3-Methoxy-N-methylmorphinan hydrobromide]
scaled lipid accumulation score [1]: inactive: 0.519

COc1c(C[C@@H](C)OC(=O)Oc2ccc(O)cc2)c2c3c(C[C@@H](C)OC(=O)c4ccccc4)c(OC)c(=O)c4c(O)cc(OC)c(c5c(OC)cc(O)c(c1=O)c52)c43 [Calphostin C]
scaled lipid accumulation score (library stock concentration: 600 uM): inactive: 0.094
